These results are taken from the supplement of paper PMC10502849.

The structures appear in SMILES notation. Structures can show the parent of a compound that is named as a salt. The list shows a part of the results. Most values come without repeats; read them as rough.

The test system of experiment [1] is H9 teratoma-derived LAM model cells, TSC2-/-. The experiment is described as follows: percent SyTOX+ dead cells; higher = more cytotoxic. The settings on record: 5 µM, treatment time 72 h, culture: 3D hyaluronic acid hydrogel.
The test system of experiment [2] is H9 teratoma-derived LAM model cells, WT. Put plainly: percent SyTOX+ dead cells; higher = more cytotoxic. The settings on record: 5 µM, treatment time 72 h, culture: 3D hyaluronic acid hydrogel, genotype: WT.
Experiment [3] concerns H9 teratoma-derived LAM model cells, TSC2-/-. The experiment is described as follows: percent of cells invaded past median invasion distance of vehicle control; LAM is lymphangioleiomyomatosis; the cells come from teratomas of the human stem cell line H9; higher = more invasion; extreme values may be limits of the assay. The settings on record: 5 µM, treatment time 72 h, culture: 3D hyaluronic acid hydrogel.
Experiment [4] has as its system H9 teratoma-derived LAM model cells, WT. The description is as above. The note with it: 5 µM, treatment time 72 h, culture: 3D hyaluronic acid hydrogel, genotype: WT.
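Wherever percent SyTOX+ dead cells is given: cells seeded atop a hyaluronic acid gel crosslinked via MMP-cleavable peptides, containing vitronectin peptides and methylcellulose, imaged live by high-content microscopy with automated analysis, one technical replicate per compound.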
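Wherever percent of cells invaded past median invasion distance of vehicle control is given: live cells imaged by high content microscopy and scored with in-house automated image analysis, one technical replicate per compound in each genotype and rapamycin condition.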

For the molecule `COc1cc2nccc(Oc3ccc(NC(=O)Nc4ccc(F)cc4F)c(F)c3)c2cc1OC`, the “percent SyTOX+ dead cells” value in experiment [1] (rapamycin 0 nM) is 14.1%; in experiment [1] (rapamycin 20 nM) it was 23.1%; in experiment [2] (rapamycin 0 nM) it was 40.9%; in experiment [2] (rapamycin 20 nM), 36.1%. Also, the percent in experiment [3] (rapamycin 0 nM) was 16%; in experiment [3] (rapamycin 20 nM), 15.7%; in experiment [4] (rapamycin 0 nM), 3.89%; in experiment [4] (rapamycin 20 nM), 3.48%.
Regarding `COc1cc(CCc2cc(NC(=O)c3ccc(N4CC(C)NC(C)C4)cc3)n[nH]2)cc(OC)c1` (stereo unspecified), the “percent SyTOX+ dead cells” value in experiment [1] (rapamycin 0 nM) worked out at 58.3%; in experiment [1] (rapamycin 20 nM), 52.7%; in experiment [2] (rapamycin 0 nM) it was 83%; in experiment [2] (rapamycin 20 nM), 81.8%. The percent in experiment [3] (rapamycin 0 nM) is 0%; in experiment [3] (rapamycin 20 nM), 0.41%; in experiment [4] (rapamycin 0 nM), 0%; in experiment [4] (rapamycin 20 nM) it was 0%.
With `Cc1cccc(-c2nn3c(c2-c2ccnc4ccc(C(N)=O)cc24)CCC3)n1`, the “percent SyTOX+ dead cells” value is 62.1% in experiment [1] (rapamycin 0 nM), 55.9% in experiment [1] (rapamycin 20 nM), 68.5% in experiment [2] (rapamycin 0 nM) and 82.2% in experiment [2] (rapamycin 20 nM). Also, the percent in experiment [3] (rapamycin 0 nM) was 0%; in experiment [3] (rapamycin 20 nM), 18.8%; in experiment [4] (rapamycin 0 nM) it was 0%; in experiment [4] (rapamycin 20 nM) it was 5.02%.
Turning to `CCN(CC)CCNC(=O)c1ccc2nc(-c3ccccc3)c(-c3ccc(CN4CCC(n5c(=O)[nH]c6ccccc65)CC4)cc3)nc2c1` [Merck-22-6], the “percent SyTOX+ dead cells” value was found to be 23% in experiment [1] (rapamycin 0 nM), 8.07% in experiment [1] (rapamycin 20 nM), 15.8% in experiment [2] (rapamycin 0 nM) and 13.2% in experiment [2] (rapamycin 20 nM). Further, the percent was determined as 76.6% in experiment [3] (rapamycin 0 nM), 82% in experiment [3] (rapamycin 20 nM), 66.5% in experiment [4] (rapamycin 0 nM) and 52.5% in experiment [4] (rapamycin 20 nM).
For the molecule `CSc1cccc(Nc2ncc3cc(-c4c(Cl)cccc4Cl)c(=O)n(C)c3n2)c1`, the “percent SyTOX+ dead cells” value turned out to be 69.8% in experiment [1] (rapamycin 0 nM), 78.9% in experiment [1] (rapamycin 20 nM), 94.7% in experiment [2] (rapamycin 0 nM) and 86.4% in experiment [2] (rapamycin 20 nM). In addition, the percent amounted to 3.14% in experiment [3] (rapamycin 0 nM), 1.71% in experiment [3] (rapamycin 20 nM), 0% in experiment [4] (rapamycin 0 nM) and 0% in experiment [4] (rapamycin 20 nM).
On to `CC(=O)SCC(=O)c1ccc(NS(=O)(=O)c2ccc(OCCCN(C)C)cc2)nc1`, for which the “percent SyTOX+ dead cells” value is 11.8% in experiment [1] (rapamycin 0 nM), 9.39% in experiment [1] (rapamycin 20 nM), 10.8% in experiment [2] (rapamycin 0 nM) and 11.8% in experiment [2] (rapamycin 20 nM). The percent in experiment [3] (rapamycin 0 nM) stood at 63%; in experiment [3] (rapamycin 20 nM), 43.3%; in experiment [4] (rapamycin 0 nM) it was 49.1%; in experiment [4] (rapamycin 20 nM) it was 28.3%.
For `C=CC(=O)N1CCC[C@@H](n2nc(-c3ccc(Oc4ccccc4)cc3)c3c(N)ncnc32)C1`, the “percent SyTOX+ dead cells” value was found to be 11.1% in experiment [1] (rapamycin 0 nM), 4.26% in experiment [1] (rapamycin 20 nM), 52.5% in experiment [2] (rapamycin 0 nM) and 48% in experiment [2] (rapamycin 20 nM). Moreover, the percent in experiment [3] (rapamycin 0 nM) is 98%; in experiment [3] (rapamycin 20 nM) it was 18.1%; in experiment [4] (rapamycin 0 nM), 7.63%; in experiment [4] (rapamycin 20 nM), 0%.
For `CC(=O)Nc1nc(C)c(-c2ccc(Cl)c(S(=O)(=O)NCCO)c2)s1`, the “percent SyTOX+ dead cells” value was 22.6% in experiment [1] (rapamycin 0 nM), 21.7% in experiment [1] (rapamycin 20 nM), 25.8% in experiment [2] (rapamycin 0 nM) and 18.7% in experiment [2] (rapamycin 20 nM). In addition, the percent in experiment [3] (rapamycin 0 nM) came out at 22.6%; in experiment [3] (rapamycin 20 nM), 30.1%; in experiment [4] (rapamycin 0 nM) it was 5.73%; in experiment [4] (rapamycin 20 nM), 33.6%.
As to `O=c1cc(-c2cccc3c2Sc2ccccc2S3)oc(N2CCOCC2)c1`, the “percent SyTOX+ dead cells” value in experiment [1] (rapamycin 0 nM) is 12%; in experiment [1] (rapamycin 20 nM), 19.8%; in experiment [2] (rapamycin 0 nM), 36.9%; in experiment [2] (rapamycin 20 nM), 16.1%. In addition, the percent was 35.2% in experiment [3] (rapamycin 0 nM), 16.2% in experiment [3] (rapamycin 20 nM), 5.73% in experiment [4] (rapamycin 0 nM) and 25.3% in experiment [4] (rapamycin 20 nM).
Regarding `O=S(=O)(c1cccc2cnccc12)N1CCCNCC1` [Fasudil HCl, AT-877, HA-1077 (diHCl), Eril], the “percent SyTOX+ dead cells” value in experiment [1] (rapamycin 0 nM) stood at 3.79%; in experiment [1] (rapamycin 20 nM), 5.21%; in experiment [2] (rapamycin 0 nM), 5.61%; in experiment [2] (rapamycin 20 nM) it was 4.12%. Moreover, the percent was 19.3% in experiment [3] (rapamycin 0 nM), 27.1% in experiment [3] (rapamycin 20 nM), 19.2% in experiment [4] (rapamycin 0 nM) and 23.2% in experiment [4] (rapamycin 20 nM).
Turning to `NCC(=O)Nc1ccc(-n2nc(C(F)(F)F)cc2-c2ccc3c(ccc4ccccc43)c2)cc1`, the “percent SyTOX+ dead cells” value in experiment [1] (rapamycin 0 nM) was determined as 14.5%; in experiment [1] (rapamycin 20 nM), 6.7%; in experiment [2] (rapamycin 0 nM), 60.1%; in experiment [2] (rapamycin 20 nM) it was 13.3%. The percent came to 62.9% in experiment [3] (rapamycin 0 nM), 21.4% in experiment [3] (rapamycin 20 nM), 5.34% in experiment [4] (rapamycin 0 nM) and 76% in experiment [4] (rapamycin 20 nM).
With `Cn1cc(C2=C(c3ccc(Cl)cc3Cl)C(=O)NC2=O)c2ccccc21`, the “percent SyTOX+ dead cells” value in experiment [1] (rapamycin 0 nM) is 41.5%; in experiment [1] (rapamycin 20 nM) it was 38.4%; in experiment [2] (rapamycin 0 nM) it was 36.4%; in experiment [2] (rapamycin 20 nM) it was 32.7%. The percent in experiment [3] (rapamycin 0 nM) was found to be 50.3%; in experiment [3] (rapamycin 20 nM), 21.8%; in experiment [4] (rapamycin 0 nM), 17.2%; in experiment [4] (rapamycin 20 nM), 19.4%.
